Results on 42 compounds are retold here after ChEMBL document CHEMBL4888484, “Replenishing the malaria drug discovery pipeline: Screening and hit evaluation of the MMV Hit Generation Library 1 (HGL1) against asexual blood stage Plasmodium falciparum ,using a nano luciferase reporter read-out” (2022).

Among all 150,000 compounds or so, about 540 (0.36%) showed an effect of 50% or more. Some of the results follow.

The subject of the experiment is Plasmodium falciparum. The experiment in a line: Primary screen in NF54 nanoGlo assay, in single point, at 2uM, 72h; a lower Z score goes with more inhibition. It counts as functional, Erythrocyte. To be noted: timepoint 72 hour.
On to `c1ccc(CN2C[C@H]3CC[C@@H](C2)N(Cc2ccnc4ccccc24)C3)nc1`, for which the “% Inhibition” value is -13% and the Z score amounted to 2.43.
For `Cn1nc2c(c1C(=O)NCC[C@H]1CCC(C)(C)CO1)CCC2`, the “% Inhibition” value was -10% and the Z score amounted to 1.21.
For the compound `COc1ncc(CN2CCC(OCc3ccccn3)CC2)cn1`, the “% Inhibition” value is recorded as -12% and the Z score stood at 1.49.
As for `COc1cc(CN2CCCC2(C)C)ccc1OC[C@@H](O)CN1CCCCCC1`, the “% Inhibition” value is given as -5% and the Z score is 0.99.
In the case of `Cc1c[nH]c(CN(C)C(=O)c2ccc3[nH]ccc3c2)n1`, the “% Inhibition” value is -7% and the Z score is given as 1.15.
For `CN(Cc1nc(-c2ccccn2)no1)Cc1cnc(N(C)C)s1`, the “% Inhibition” value is -6% and the Z score is listed as 0.84.
The like results for `Cc1cc(N2CC[C@H](C(N)=O)C2)c2cc(OC(F)F)ccc2n1` were, in that order, -6% and 1.13.
Taken in the same sequence, the figures for `CCOC(=O)c1cc(S(=O)(=O)N(C)CC(=O)Nc2cccc3c2CCCC3)cn1C` were -13% and 2.52.
As for `O=S(=O)(NC[C@@H](c1ccc(Cl)cc1)N1CCCCC1)C1CC1`, the “% Inhibition” value is -13% and the Z score is 2.27.
With `CC1CC(c2ccccc2)n2ncnc2N1C(=O)c1ccc(Cl)cc1` (centres undefined), the “% Inhibition” value stood at 31% and the Z score was -3.46.
In the case of `O=C(c1ccc2ncsc2c1)N1CCn2nc3c(c2C1)CCC3`, the “% Inhibition” value is listed as 12% and the Z score is listed as -1.47.
Taken in the same sequence, the figures for `Cc1ccc2cccc(S(=O)(=O)NCCCn3cccn3)c2n1` were -3% and 0.5.
Regarding `CC(C)Oc1ccc2nnc(CCC(=O)Nc3ccccn3)n2n1`, the “% Inhibition” value was -2% and the Z score turned out to be 0.22.
Turning to `COc1cc(C(=O)NC[C@@H](c2ccc(N(C)C)cc2)N2CCCC2)cc(OC)c1OC`, the “% Inhibition” value was 3% and the Z score was -0.31.
Taken in the same sequence, the figures for `CCc1nnc(CN2C(=O)N[C@@](C)(c3ccc(Cl)s3)C2=O)o1` were 2% and -0.34.
The like results for `CCN(C(=O)c1ccc(-c2ccc(C(=O)NC)o2)cc1)[C@H]1COC[C@@H]1O` were, in that order, -19% and 1.79.
On to `CCOc1cccc(CNC(=O)C(C)(C)C)c1`, for which the “% Inhibition” value was -11% and the Z score was determined as 0.98.
On to `Cc1ccc(OCc2nc(C)c(C(=O)Nc3nccs3)s2)cc1C`, for which the “% Inhibition” value is given as 0% and the Z score is -0.06.
As to `Cc1nn(-c2ccccc2)c2c1C(=O)NC(=O)C(C)(C)C2`, the “% Inhibition” value is -4% and the Z score turned out to be 0.54.
The like results for `CCN(CC(C)(C)C)C(=O)c1c(C)cccc1OC` were, in that order, 4% and -0.61.
Taken in the same sequence, the figures for `COC[C@@H]1[C@H](NC(=O)c2cc3ccccc3[nH]2)[C@H]2CCO[C@H]21` were -13% and 2.29.
`Cc1ncccc1CN[C@@H](CN1CCCC1=O)c1cccc(C(F)(F)F)c1`: the “% Inhibition” value is -14% and the Z score was 1.77.
Consider `CC1CC(c2cccnc2)N(C(=O)NCc2ccccc2)C1` (centres undefined), for which the “% Inhibition” value is reported as -4% and the Z score came out at 0.64.
Regarding `Cc1nc([C@H](C)NC(=O)c2cnc(COc3ccccc3)nc2O)cs1`, the “% Inhibition” value was determined as 1% and the Z score is given as -0.11.
In the case of `O=C(NCc1cnc(C(F)(F)F)nc1)N[C@@H]1CCc2cc(Cl)ccc21`, the “% Inhibition” value is given as -8% and the Z score is 1.2.
Regarding `OCCn1cc(Nc2ncnc3sccc23)cn1`, the “% Inhibition” value came to 5% and the Z score is listed as -0.96.
The like results for `CN1C(=O)CC[C@H]1C(=O)Nc1ccc(-c2cn3c(n2)CCCC3)cc1` were, in that order, -18% and 2.62.
For the compound `CCn1nc(C)c(-c2cc(C(=O)N3C[C@H]4CN(C(=O)C(C)C)C[C@@]4(CO)C3)no2)c1C`, the “% Inhibition” value is -11% and the Z score is listed as 1.53.
In the case of `Cc1nc(CN[C@H]2CCCN(C(=O)C(C)C)C2)n(C)c1C`, the “% Inhibition” value is recorded as -22% and the Z score turned out to be 1.93.
Consider `Cn1nc(C2CC2)nc1CN1CCO[C@H](c2cccs2)C1`, for which the “% Inhibition” value is -9% and the Z score was determined as 1.4.
Taken in the same sequence, the figures for `O=C(NCc1cccs1)C1CCN(Cc2ccncc2)CC1` were 10% and -0.85.
With `Cc1n[nH]c(C)c1CNC(=O)[C@H]1CC(=O)N(c2ccccc2Br)C1`, the “% Inhibition” value is -3% and the Z score is recorded as 0.7.
For `COCCCn1c(C)cc(C(=O)N2CC[C@H]3C(=O)NCCN3CC2)c1C`, the “% Inhibition” value turned out to be 0% and the Z score came to 0.04.
With `Cc1cc(C)n(CCN(C)c2nnc(C)s2)n1`, the “% Inhibition” value is -5% and the Z score worked out at 0.8.
With `c1ccc(-c2nnc(NCCN3CCOCC3)o2)cc1`, the “% Inhibition” value is listed as -5% and the Z score is recorded as 0.66.
With `Cc1ccc(C(=O)N2C[C@@H]3C[C@H](NS(=O)(=O)c4cccnc4)[C@H]2C3)cc1F`, the “% Inhibition” value was determined as 34% and the Z score is on record as -3.8.
For `CCOc1ccc(CCNC(=O)c2nc(-c3ccc4c(c3)OCC(=O)N4C)no2)cc1OCC`, the “% Inhibition” value is reported as 11% and the Z score is -1.31.
Turning to `CCC(C)S(=O)(=O)NC(=O)C1CC1(Cl)Cl` (centres undefined), the “% Inhibition” value was -15% and the Z score is reported as 1.97.
With `C[C@H](O)Cc1cn(C2CCN(C(=O)NCc3ccco3)CC2)nn1`, the “% Inhibition” value came to 6% and the Z score was -0.8.
Taken in the same sequence, the figures for `CC(C)N1CCC(CN2CCO[C@H](c3ccc(Cl)cc3)C2)CC1` were -10% and 1.35.
For the compound `Cc1noc(C)c1CN1CC[C@H](NC(=O)Cc2cccnc2)[C@@H](O)C1`, the “% Inhibition” value was 2% and the Z score is given as -0.26.
With `CCc1nsc(NCc2nc(C(F)(F)F)no2)n1`, the “% Inhibition” value was -4% and the Z score is on record as 0.41.

By % Inhibition is commonly meant the change of the read-out against control, counted positive when it falls.
